From PubChem BioAssay AID624417 (National Center for Advancing Translational Sciences (NCATS), 2012)
About 6,400 (1.6%) of roughly 410,000 compounds were called active. The shares of active, inactive and inconclusive entries below differ from those in the screen. Calls follow the shape of the dose curve; as a rule, active = well fitted inhibition curve with a large enough effect; inconclusive = small, poorly fitted or top-dose-only effect; inactive = no such curve, though single readings can be large or run the other way. Potencies of inconclusive entries are doubtful fits and often do not repeat.

target: Glucagon-like peptide 1 receptor (Homo sapiens) (UniProt P43220); experiment: qHTS of GLP-1 Receptor Inverse Agonists (Inhibition Mode); conditions: HEK293 GLP-1R CRE-luciferase, luminescence, 24 h, GLP-1R form is constitutively active; series mostly up to 38.3 µM; also: nearly all actives have a fitted effect of over 55% in size
Chain of UniProt P43220 (P43220 whole entry, looked up): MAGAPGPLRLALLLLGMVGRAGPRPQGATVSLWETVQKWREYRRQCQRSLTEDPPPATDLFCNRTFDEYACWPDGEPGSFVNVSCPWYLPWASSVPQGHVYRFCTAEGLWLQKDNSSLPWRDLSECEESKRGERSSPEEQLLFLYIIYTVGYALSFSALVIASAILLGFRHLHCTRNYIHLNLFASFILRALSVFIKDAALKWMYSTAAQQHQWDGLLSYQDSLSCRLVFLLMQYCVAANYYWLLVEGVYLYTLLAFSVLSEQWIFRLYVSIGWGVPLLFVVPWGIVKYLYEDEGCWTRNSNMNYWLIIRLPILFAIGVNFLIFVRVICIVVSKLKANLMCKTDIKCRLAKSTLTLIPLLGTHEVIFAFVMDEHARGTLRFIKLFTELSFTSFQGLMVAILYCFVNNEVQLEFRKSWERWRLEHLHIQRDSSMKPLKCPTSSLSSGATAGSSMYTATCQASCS
In short: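 GLP-1R inverse agonism mode: basal reporter luminescence in engineered HEK293 cells measured after one day of compound exposure at 37 deg C, with a 12 min room-temperature detection step.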
Potency is read from the fitted curve at half-maximal effect; tags tell the direction and shape of the fitted curve.

Potency, inactive:
Cc1ccc(CSc2nnnn2C)cc1
COc1ccccc1NC(=O)Cn1c(=O)n(Cc2ccco2)c(=O)c2cccnc21
Cc1ccc2c(c1)c1c(c(=O)n(-c3ccccc3C)c(=O)n1CC(=O)NCc1ccccc1)n2C
CCn1c(SCCN2CCCCC2)nnc1-c1ccc(S(=O)(=O)N2CCOCC2)cc1
Cc1ccc(CNS(=O)(=O)c2cc(C(=O)Nc3cccc(C(F)(F)F)c3)ccc2F)cc1
N#CCCN(NC(=O)OCc1ccccc1)C(=O)OCc1ccccc1
NC(=O)C1(N2CCCCC2)CCN(C(=O)Nc2ccc(C(F)(F)F)cc2)CC1
Cc1ccc(NCc2ccccc2-c2nnc(-c3ccccc3Cl)o2)c(C)c1

Potency, inconclusive:
CCC(CO)Oc1cc(NCc2ccc(C(C)(C)C)cc2)c2ncn(C(C)C)c2c1 (stereo unspecified) 12.6 µM [inhibitor, single point]
O=C(Nc1ccc(O)cc1)c1ccc(NC(=O)c2ccco2)cc1 14.1 µM [inhibitor, partial curve, poor fit]
Cc1onc(-c2ccc(F)cc2F)c1C(=O)Nc1cccc(C(F)(F)F)c1 28.2 µM [inhibitor, single point]
CC(C)(C)OC(=O)N(Cc1ccccc1)Cc1ccccc1OCc1cccc(NC(=O)C2CCC2)c1 10 µM [inhibitor, partial curve, poor fit]
Cc1cc(C)cc(C(=O)N/N=C/c2ccoc2)c1 25.1 µM [inhibitor, single point]
COc1ccc(C(=O)c2sc(Nc3cccc(OC)c3)c(C(=O)Nc3cccc(C)c3C)c2N)cc1 31.6 µM [inhibitor, single point]
COc1ccc(C(=O)/C=C/c2ccc(OC)c(COc3ccccc3F)c2)cc1 28.2 µM [inhibitor, single point]
COc1ccc(N(Cc2cccs2)C(=O)Nc2ccccc2)cc1 28.2 µM [inhibitor, single point]
Cc1oc(-c2ccccc2)nc1Cn1cccc1C1=NC(c2ccccc2)CO1 (stereo unspecified) 7.08 µM [inhibitor, partial curve, poor fit]
CC(C)Cc1ccc(CN2CCCC(NC(=O)c3nn(C)c(=O)c4ccccc34)C2)cc1 (stereo unspecified) 7.94 µM [inhibitor, partial curve, poor fit]
Cc1cc(-c2ccc(C)c(S(=O)(=O)N(C)c3ccc(C)c(C)c3)c2)on1 11.2 µM [inhibitor, partial curve, poor fit]
CCCCc1ccc(NC(=O)CN2C(=O)C3CCCCC3C2=O)cc1 (stereo unspecified) 7.08 µM [inhibitor, partial curve, poor fit]
CCOC(=O)c1c(Oc2ccc(OC)cc2)nnc(-c2ccccc2)c1-c1ccccc1 10 µM [inhibitor, partial curve, poor fit]
COc1cccc(CNCC(O)(c2ccc(Cl)cc2)c2ccc(Cl)cc2)c1 28.2 µM [inhibitor, single point]
Cc1ccc(S(=O)(=O)N2CCOCC2)cc1NC(=O)CN1CCN(c2ccc(O)cc2)CC1 2.24 µM [inhibitor, single point]
O=C(N/N=C/c1cccnc1)c1cc(-c2ccccc2OCc2ccccc2)n[nH]1 28.2 µM [inhibitor, single point]
COc1cc(SC)ccc1C(=O)Nc1ccc(C)cc1 10 µM [inhibitor, single point]
N#CCC(=O)N/N=C/c1c(-c2ccccc2)n(-c2ccccc2)c2ccccc12 2.24 µM [inhibitor, full curve]
Cn1cc(SCC(=O)N2CCN(c3ccccc3)CC2)c2ccccc21 11.2 µM [inhibitor, single point]
CC(C)CCOc1ccc(C(=O)C[N+]2(C)CCOCC2)cc1 8.91 µM [inhibitor, partial curve, poor fit]
C=CC[C@@H](CC(=O)N(CCO)Cc1ccccc1)C(=O)N[C@H](COC(=O)[C@@H](CC=C)Cc1ccc(F)cc1)Cc1ccccc1 6.31 µM [inhibitor, partial curve, poor fit]
CCCCOc1ccc(Nc2cc(Cl)ccc2C(=O)O)cn1 31.6 µM [inhibitor, partial curve, poor fit]
COc1ccc(CNCCC(c2ccccc2)c2ccc(OC(C)C)cc2)cc1OC (stereo unspecified) 28.2 µM [inhibitor, single point]
Cc1ccc(S(=O)(=O)N2[C@@H](c3ccc(F)cc3)C(C(=O)O)=CC[C@H]2c2cccs2)cc1 31.6 µM [inhibitor, single point]
CC1CCN(C(=O)c2cc3ccccc3o2)CC1 28.2 µM [inhibitor, single point]
Cc1ccc(S(=O)(=O)N2CCC(C(=O)Nc3ccc(S(=O)(=O)N4CCOCC4)cc3)CC2)cc1 14.1 µM [inhibitor, single point]
O=C(c1ccc2oc(CCCc3ccccc3)nc2c1)N1CCCC(CCCO)C1 (stereo unspecified) 12.6 µM [inhibitor, partial curve, poor fit]
Cc1cc(Oc2ccc(C)c(Cl)c2)nc(SCC(=O)c2ccccc2)n1 12.6 µM [inhibitor, single point]
COc1ccc(C(=O)NNC2=C(C(=O)C(F)(F)F)CCC2)cc1 1.78 µM [inhibitor, full curve, poor fit]
CCN(CC)c1nc(-c2ccccc2)nc2ccccc12 14.1 µM [inhibitor, single point]
CC(C)N(Cc1ccccc1)S(=O)(=O)c1ccc(-n2cccn2)cc1 11.2 µM [inhibitor, partial curve, poor fit]

Potency, active:
c1ccc(-c2csc(Nc3ccccn3)n2)cc1 10 µM
CC1c2ccccc2SC(CCCN(C)C)c2ccccc21 (stereo unspecified) 11.2 µM
